# Results published in publication PMC4336329 (PLoS ONE, 2015).
# The whole screen tested about 310,000 compounds, of which about 2,200 (0.71%) showed an effect of 50% or more. The effect is printed as a negative number. The list shows a part of the results.
# Biological target: human ether-à-go-go-related gene (hERG) potassium channel (human, UniProt Q12809)
# Assay: primary screen, population patch clamp on CHO cells stably expressing hERG
# Chain of human ether-à-go-go-related gene (hERG) potassium channel (Q12809 whole entry, looked up): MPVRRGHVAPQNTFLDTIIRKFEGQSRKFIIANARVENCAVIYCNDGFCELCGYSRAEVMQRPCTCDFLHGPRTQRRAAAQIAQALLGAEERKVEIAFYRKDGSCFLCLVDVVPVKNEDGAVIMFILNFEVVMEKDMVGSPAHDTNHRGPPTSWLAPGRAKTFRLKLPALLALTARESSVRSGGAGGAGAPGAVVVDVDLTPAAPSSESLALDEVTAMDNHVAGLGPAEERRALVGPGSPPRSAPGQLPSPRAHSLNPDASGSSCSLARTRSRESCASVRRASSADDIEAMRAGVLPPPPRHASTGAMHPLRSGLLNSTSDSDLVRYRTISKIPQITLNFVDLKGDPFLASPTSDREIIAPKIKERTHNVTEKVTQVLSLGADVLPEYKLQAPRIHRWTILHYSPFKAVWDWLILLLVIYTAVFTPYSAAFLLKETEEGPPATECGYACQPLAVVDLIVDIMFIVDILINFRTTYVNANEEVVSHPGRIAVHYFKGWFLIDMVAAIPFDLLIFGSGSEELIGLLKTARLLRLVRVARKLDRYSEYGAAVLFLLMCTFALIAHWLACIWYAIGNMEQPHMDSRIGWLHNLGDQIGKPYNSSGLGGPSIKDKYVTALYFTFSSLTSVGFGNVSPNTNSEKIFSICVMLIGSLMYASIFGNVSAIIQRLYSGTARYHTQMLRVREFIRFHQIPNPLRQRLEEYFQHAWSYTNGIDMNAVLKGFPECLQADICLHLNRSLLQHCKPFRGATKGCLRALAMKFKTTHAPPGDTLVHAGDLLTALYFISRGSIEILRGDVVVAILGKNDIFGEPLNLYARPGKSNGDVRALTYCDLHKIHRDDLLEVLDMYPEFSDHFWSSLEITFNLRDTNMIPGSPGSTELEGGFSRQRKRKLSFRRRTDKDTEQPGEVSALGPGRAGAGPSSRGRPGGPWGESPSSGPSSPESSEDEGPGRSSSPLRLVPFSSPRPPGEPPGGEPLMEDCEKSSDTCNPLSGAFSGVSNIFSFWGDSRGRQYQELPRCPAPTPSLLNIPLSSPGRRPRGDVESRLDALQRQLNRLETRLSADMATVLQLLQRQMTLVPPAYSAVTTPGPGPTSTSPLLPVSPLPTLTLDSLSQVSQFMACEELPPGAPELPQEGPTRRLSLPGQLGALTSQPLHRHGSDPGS
row,Compound,"hERG current change (%, negative = inhibition) at 1uM [%]"
1,CCOC(=O)C1CCN(C(=O)c2cccc(NC(=O)C(CC)CC)c2)CC1,6.96
2,OC(CNCCC(c1ccccc1)c1ccccc1)COc1ccccc1 (stereo not drawn),-18.7
3,C[N+]12CN3CN(CN(C3)C1)C2.[I-],16.3
4,Cn1c(CCNS(=O)(=O)c2ccc(F)cc2)nnc1SCc1cccnc1,15.4
5,c1ccc2cc(Sc3ncnc4c3oc3ccccc34)ccc2c1,16.8
6,CCC[N+](CC#Cc1ccccc1)(CCC)CC(=O)OC,10.3
7,COc1nccnc1NS(=O)(=O)c1ccc(NC(=S)NC(=O)c2cccc(F)c2)cc1,12.7
8,Cc1ccc(NC(=O)/C(=C/c2cccc([N+](=O)[O-])c2)NC(=O)C2CCCCC2)c(C)c1,-6.3
9,O=C(NCc1ccccc1F)c1ccc2c(c1)OCCO2,11.8
10,CCCC(=O)Nc1nnc(-c2ccc3c(c2)OCCO3)o1,5.57
11,COc1cccc(CN(C)C(=O)c2ccc(N3CCCC3)c([N+](=O)[O-])c2)c1,5.56
12,COc1cccc(C(=O)N2CCN(C3CCN(Cc4ccccc4)CC3)CC2)c1OC.O=C(O)C(=O)O,4.11
13,Cc1nc2oc3c(NCC4CCCO4)ncnc3c2c2c1COC(C)(C)C2 (stereo not drawn),-0.787
14,COc1ccc(N2CCN(C(=O)c3ccccc3Br)CC2)c([N+](=O)[O-])c1,-5.46
15,Cc1cccc(NC(=O)C2CC(=O)OC23CCCC3)c1 (stereo not drawn),15
16,CC1N(C(=O)N(C)C)CCN1S(=O)(=O)c1ccccc1 (stereo not drawn),18.2
17,O=C(Nc1ccc(Cl)cc1Cl)c1ccc2c(=O)n3c(nc2c1)CCC3,3.65
18,COc1ccc(CNC/C=C/c2ccccc2)cc1.Cl,-0.786
19,Cc1ccc2nc(NC(=O)CC3Oc4ccccc4NC3=O)sc2c1 (stereo not drawn),9.25
20,C=CCn1c(SCc2nc3ccccc3c(=O)[nH]2)nc2ccccc2c1=O,2.82
21,CC(C)CC(=O)NC(=S)Nc1ccc(CN2CCOCC2)cc1,7.01
22,N#Cc1cnn(-c2nc(SCc3ccccc3)nc3sc4c(c23)CCCC4)c1N,9.25

row,Compound,"hERG current change (%, negative = inhibition) at 1uM [%]"
1,O=c1ccc(/C=C/c2ccccc2)nn1Cc1ccc(F)cc1,4.97
2,C=CCN1C(=O)/C(=C2/Sc3ccccc3N2C)SC1=Nc1ccccc1C,14.5
3,O=C(NCc1ccccn1)c1cc(S(=O)(=O)N2CCN(c3ccccc3)CC2)ccc1Cl,-8.41
4,CCOC(=O)C1CCN(c2c(NCCCN3CCCCC3)c(=O)c2=O)CC1,12.9
5,CC(=O)c1c(-c2ccc(Cl)cc2)c2ccccc2[nH]c1=O,12.6
6,CCN(CC(=O)Nc1ccc2c(c1)OCCO2)C(=O)c1ccc(C(F)(F)F)cc1,13.9
7,O=C(COC(=O)c1ccc(S(=O)(=O)Nc2ccccc2)cc1)NC1CCCC1,17.7
8,Cc1ccccc1NC(=O)Nc1cccs1,13.4
9,COc1ccc(C(=O)NNC2=C(C(=O)C(F)(F)F)CCC2)cc1,14.7
10,COc1ccc(N(C(=O)c2ccc(C)cc2)S(=O)(=O)c2cccs2)cc1,16.3
11,O=C(COC(=O)c1ccccc1NCCO)Nc1cccc(S(=O)(=O)NC2=NCCCCC2)c1,4.76
12,COc1ccc(NC(=O)c2ccccn2)cc1,6.69
13,CSc1cccc(NS(=O)(=O)c2ccc3c(c2)oc(=O)n3C)c1,7.3
14,CCOC(=O)CC(=O)CSc1nc2c(c(C)c1C#N)CCC2,1.35
15,COC(=O)C1N[C@@H]([C@@H](NC(=O)COc2ccccc2)C(=O)NC2CC2)SC1(C)C (stereo partly drawn),9.01
16,COc1ccc(N(CC(=O)Nc2ccc(Cc3ccncc3)cc2)S(=O)(=O)c2ccccc2)cc1,11.2
17,Cc1cccc(NC(=O)Cn2nnc(-c3cccs3)n2)c1C,7.96
18,COc1cc(C)nc(OCCNC(=O)COc2ccc(Cl)cc2Cl)n1,6.51
19,Cc1ccc(C)c(NC(=S)N(Cc2ccc(Cl)cc2)Cc2ccc(C(=O)O)cc2)c1,14.9
20,CCOc1ccccc1-n1c(SCC(=O)N2CCOCC2)nnc1-c1ccccn1,6.84
21,CCOc1ccc(N2C(=O)CSC2c2ccncc2)cc1 (stereo not drawn),17.5
22,CCOC(=O)N1CCN(C(=O)c2cn(C)c3ccc(S(=O)(=O)N(CC)CC)cc3c2=O)CC1,17.4

row,Compound,"hERG current change (%, negative = inhibition) at 1uM [%]"
1,COc1ccc(OC)c2sc(NC(=O)c3ccc(Br)s3)nc12,16.2
2,COC(=O)C1=C(N)Oc2c(oc(CO)cc2=O)C1c1ccc(F)cc1 (stereo not drawn),6.28
3,O=C(O)/C=C/c1ccc(S(=O)(=O)Nc2ccc(OCc3ccccc3)cc2)cc1,17.6
4,Cc1onc(-c2ccccc2)c1C(=O)N1CCN(Cc2ccc3c(c2)OCO3)CC1.Cl,13.5
5,COc1ccc(OC)c(Nc2c3ccccc3nc3ccccc23)c1,5.25
6,O=C(CN1/C(=C(/O)c2ccccc2)C(=O)c2ccccc2S1(=O)=O)c1ccccc1,9.7
7,COc1cccc2cc3c(=O)n(-c4ccccc4)nc-3oc12,8.78
8,Cc1cccc(NC(=O)c2cc3ccccc3oc2=O)c1,13
9,COc1ccc(CC(=O)NNC(=O)c2ccco2)cc1OC,12.4
10,COc1ccc(NC(=O)/C(C#N)=C/c2c(C)nn(-c3ccc(F)cc3)c2Cl)cc1Cl,6.95
11,Cc1ccccc1C1NC(=O)Cc2ccccc21 (stereo not drawn),13.3
12,CCc1cc(Cn2nc(-c3ccccc3)cc2C(=O)NCc2ccc(C)cc2)on1,8.29
13,CC1CN(c2cnn(C(C)C)c(=O)c2Cl)CC(C)O1 (stereo not drawn),2
14,N#C/C(=C\c1c(N2CCOCC2)nc2ccccn2c1=O)C(=O)NC1CCS(=O)(=O)C1 (stereo not drawn),-1.57
15,COc1ccc2[nH]c(C)c(C(=O)CN3CCc4cc(OC)c(OC)cc4C3)c2c1,-3.19
16,O=C(NCC1CCN(Cc2ccccc2F)CC1)Nc1ccccc1F,-3.45
17,Cl.O=S(=O)(c1cccc2cnccc12)N1CCNCC1,15.5
18,Cc1cc(N2CCCCCC2)nc2ccccc12.O=C(O)C(=O)O,-23.3
19,CCc1ccc(CCC(=O)Nc2nnc(C)s2)o1,2.72
20,O=C(CSCc1ccccc1F)NCc1ccc(F)cc1,9.67
21,CCOc1ccc(NC(=O)c2sc(NC(C)=O)c(C(=O)OC)c2C)cc1,18.2
22,CCCn1c(=O)c(Cc2ccccc2)c(O)c2ccccc21,0.875

row,Compound,"hERG current change (%, negative = inhibition) at 1uM [%]"
1,Cc1cc(/C=C2/C(=N)N3C(=NC2=O)SN=C3S(C)(=O)=O)c(C)n1-c1ccccc1F,13.5
2,Cc1cc(C)c2c(n1)sc1c(N3CCN(C)CC3)ncnc12,0.322
3,O=C(CS(=O)(=O)c1cn(Cc2ccccc2Cl)c2ccccc12)N1CCOCC1,8.16
4,CCOC(=O)N1CCN(C(=O)CN(c2ccccc2OC)S(=O)(=O)c2ccc(OC)cc2)CC1,3.6
5,Cc1ccnc(NS(=O)(=O)c2ccc(NC(=O)c3ccc(S(=O)(=O)N4CCOCC4)cc3)cc2)n1,10.8
6,COc1ccc([C@H]2CC(=O)C=C(c3ccccc3-c3ccccc3)C2)cc1,8.44
7,COCCCNCCCOc1ccc(C)cc1Br.O=C(O)C(=O)O,-3.31
8,Cc1cccc(NC(=O)c2c(O)c3ccccc3n(C)c2=O)c1,19.3
9,O=C1Nc2ccc(Br)cc2C12OCCO2,12.5
10,O=C(O)CCc1ccc(-c2cccs2)n1Cc1ccco1,-11.3
11,COC(=O)C1=C(C(=O)c2ccccc2)C(c2ccc(OC)c(OC)c2)Nc2nnnn21 (stereo not drawn),10.3
12,C/C(CC(=O)Nc1ccc(N(C)C)cc1)=N\NC(=O)c1ccncc1,9.61
13,Cc1csc(NC(=O)c2cc3c(s2)-c2ccccc2OC3)n1,7.79
14,CC(=NCc1cccnc1)c1c(O)n(-c2ccccc2)c(=O)[nH]c1=O,17.9
15,C=CCNc1nnc(SC2CC(=O)N(c3ccc(OCCC)cc3)C2=O)s1 (stereo not drawn),8.05
16,Cn1cc(S(=O)(=O)N2CCOCC2)cc1C(=O)Nc1cccc(Cl)c1,3.77
17,O=C(NCc1ccco1)c1nc2c(nnn2Cc2ccccc2Cl)c(=O)[nH]1,1.44
18,c1ccc(C2C3=C(CCCC3)Nc3ncnn32)cc1 (stereo not drawn),12.9
19,COc1ccc(Cc2nc3ccc(C(=O)N(C)C(C)c4ccon4)cc3o2)cc1 (stereo not drawn),3.42
20,COc1ccc(-c2nc(-c3ccccc3)c(-c3cc([N+](=O)[O-])ccc3C)[nH]2)cc1OC,12.6
21,Cc1ccc(-n2ncc3c(=O)n(CC(=O)N4CCN(c5ccccc5)CC4)cnc32)cc1C,2.17
